Laboratory results taken from patent US20250297030A1 (SHANDONG SIMCERE BIOPHARMACEUTICAL, published 2025).

T1: monkey MUC17 fragment on FlpinCHO-Cyno(3597-3964)-D2 cells (monkey)
T1 chain: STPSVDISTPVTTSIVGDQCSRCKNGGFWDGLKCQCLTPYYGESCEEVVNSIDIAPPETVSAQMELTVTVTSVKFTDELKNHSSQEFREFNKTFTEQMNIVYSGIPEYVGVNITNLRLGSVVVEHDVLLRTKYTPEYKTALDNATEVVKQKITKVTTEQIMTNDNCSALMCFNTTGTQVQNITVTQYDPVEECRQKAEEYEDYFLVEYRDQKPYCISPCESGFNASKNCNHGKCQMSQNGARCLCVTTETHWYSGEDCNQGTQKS


Experiments:
[1] = target: T1, monkey MUC17 fragment on …; assay: FACS on FlpinCHO-Cyno(3597-3964)-D2 cells, MFI
[2] = target: T2, Human MUC17 ECD4131-his (His-tagged human MUC17 protein extracellular domain fusion protein) (human, UniProt Q685J3 partial chain); assay: SPR (Biacore 8K), antibody captured on Protein A
T2 construct: a truncation of the extracellular domain; also called human MUC17-his protein; human MUC17-His
Experimental: The strength of antibody-antigen binding was assayed with a BIAcore 8K instrument using an Protein A capture method. First, Protein A was immobilized onto a CM4 chip (purchased from GE, BR-1005-34) using an amino coupling method. According to the instruction of the Amine Coupling Kit (purchased from GE, BR100633), NHS and EDC were mixed with HBS-EP+ pH 7.4 as a mobile phase to activate the chip for about 600 s; the Protein A was diluted to 50 µg/mL with 10 mM sodium acetate (pH 4.5) and injected for 600 s, and finally, the remaining activated sites were blocked with ethanolamine. Then, the affinity of the antibody for the antigen was assayed using a multi-cycle kinetic method; in each cycle, first, the antibody to be tested was captured using the Protein A chip, and then a single concentration of antigen protein was injected. The association and dissociation processes of the antibody with the antigen protein were recorded, and finally, the chip was regenerated using Glycine pH 1.5, wherein the mobile phase was HBS-EP+ (10 mM HEPES, 150 mM NaCl, 3 mM EDTA, 0.05% surfactant P20), the flow rate was […], the regeneration time was 30 s, and the assay temperature was 25° C. Finally, according to a 1:1 binding model, the data were analyzed, and the antibody-antigen binding kinetics parameters, including the association rate constant Ka, the dissociation rate constant Kd, the equilibrium dissociation constant KD, and the maximum binding signal Rmax, were fitted. The association rate (Ka), dissociation rate (Kd), and binding affinity (KD) of the recombinant antibodies Lab315-huFc, Lab316-huFc, Lab320-huFc, Lab331-huFc, and Lab332-huFc with the human MUC17 protein are shown in Table 5.
After the finally obtained various humanized antibodies were expressed and purified, the affinity of the humanized antibodies for the human MUC17 protein was assayed according to the method in Example 3.6.

[3] = target: human MUC17 on NUGC4 endogenous tumor cells (human, UniProt Q685J3); assay: FACS on NUGC4 cells, MFI
Experimental: Then a complete medium was added to stop the digestion, and the cells were blown into a single cell suspension. After counting, the cells were centrifuged, and the cell pellet was resuspended to 2×10⁶ cells/mL in an FACS buffer (PBS+2% fetal bovine serum), and added to a 96-well FACS reaction plate at 100 µL/well. The plate was centrifuged, and the supernatant was discarded. An antibody sample to be tested (diluted in a 3-fold gradient from a starting concentration of 100 nM) was added at 50 µL/well and uniformly mixed with the cells, and the mixture was incubated at 4° C. for 1 h. […] The results were tested and analyzed by FACS (FACS Canto™, purchased from BD) after the plate was centrifuged and washed 3 times with a PBS buffer and resuspended with 100 μL of PBS. Data analysis was performed by software (FlowJo) to obtain the mean fluorescence intensity (MFI) of the cells. Then, analysis was performed by software (GraphPad Prism8), data were fitted, and EC50 values were calculated. As shown in FIGS. 3A-3B, the recombinant antibodies Lab315-huFc, Lab316-huFc, Lab320-huFc, Lab331-huFc, and Lab332-huFc are all capable of binding specifically to NUGC-4 cells.
The preparation of the assay cells and the antibodies to be tested and the assay were performed with reference to Example 3.4. The humanized antibodies all have a relatively good binding activity with endogenous cells NUGC4, maintaining the binding ability of the corresponding recombinant antibodies before humanization.

| Binder | EC50 (read off the curve) [1] [nM] | Kd [2] [nM] | koff [2] [s⁻¹] | kon [2] [M⁻¹ s⁻¹] | EC50 (read off the curve) [3] [nM] |
| --- | --- | --- | --- | --- | --- |
| SCR-7724-001-H5-hFc (Fc fusion, VHH-huFc (C220S) order with human hinge and Fc; also called SCR-7724 humanized antibody) EVQLVESGGGLVQPGRSLRLSCAASGDITRRCMGWFRQAPGKEREGVAGISEDGITIYADSVKGRFTISKDNAKNSLYLQMNSLRAEDTALYSCAASILNRVGCRQLSYEYIYRGQGTMVTVSS[omitted - human IgG1 Fc with C220S (EU numbers)] | ~2 | 0.306 | 4.02e-05 | 131000 | ~0.1 |
| SCR-7724-001-H9-hFc (Fc fusion, VHH-huFc (C220S) order with human hinge and Fc; also called SCR-7724 humanized antibody) EVQLVESGGGLVQPGRSLRLSCAASGDITRRCMGWFRQAPGKEREGVAGISEDGITGYADSVKGRFTISRDNAKNSLYLQMNSLRAEDTALYSCAASILNRVGCRQLSYEYIYRGQGTMVTVSS[omitted - human IgG1 Fc with C220S (EU numbers)] | ~2 | 6.1 | 0.000583 | 95600 | ~0.1 |
| SCR-7724-001-H10-hFc (Fc fusion, VHH-huFc (C220S) order with human hinge and Fc; also called SCR-7724 humanized antibody) EVQLVESGGGLVQPGRSLRLSCAASGDITRRCMGWFRQAPGKEREGVAGISEDGITGYADSVKGRFTISKDNAKNSLYLQMNSLRAEDTALYSCAASILNRVGCRQLSYEYIYRGQGTMVTVSS[omitted - human IgG1 Fc with C220S (EU numbers)] | ~2 | 0.815 | 8.58e-05 | 105000 | ~0.1 |
| SCR-7724-001-H11-hFc (Fc fusion, VHH-huFc (C220S) order with human hinge and Fc; also called SCR-7724 humanized antibody) EVQLVESGGGLVQPGRSLRLSCAASGDITRRCMGWFRQAPGKEREGVAGISEDGITGYADSVKGRFTISKDNAKNSLYLQMNSLRAEDTALYSCAASILNRVGCRQLSYEYIYRGQGTQVTVSS[omitted - human IgG1 Fc with C220S (EU numbers)] | ~3 | 0.697 | 7.63e-05 | 109000 | ~0.1 |
| SCR-7724-001-H8-hFc (Fc fusion, VHH-huFc (C220S) order with human hinge and Fc; also called SCR-7724 humanized antibody) EVQLVESGGGLVQPGRSLRLSCAASGDITRRCMGWFRQAPGKEREGVAGISEDGITGYADSVKGRFTISRDNAKNSLYLQMNSLRAEDTALYYCAASILNRVGCRQLSYEYIYRGQGTMVTVSS[omitted - human IgG1 Fc with C220S (EU numbers)] | ~2 | 23.5 | 0.0017 | 72400 | ~0.1 |
